In all, about 280,000 compounds went through this assay and about 100 (0.036%) were called active. Inconclusive means that the source gave no clear call. Such entries were picked first, then a sample of the others. The call rests on the fitted dose curve; in most records, active means well fitted inhibition curve with a large enough effect in the signal ratio, with a control signal flat (not every such curve was filed as active); inconclusive means small, poorly fitted or top-dose-only effect, or effect the other way, or a change in a side signal; inactive means no such curve, though single readings can be large or run the other way; the % refers to the signal ratio. Potencies beside an inconclusive call are fits to weak or partial responses and may not hold up. “Side channel” marks fits to a control or component signal instead of the main read-out.
Each compound was assayed against Muscleblind-like protein 1 (Homo sapiens) (UniProt Q9NR56) (assay: qHTS Assay for Inhibitors of MBNL1-poly(CUG) RNA binding). Conditions: TR-FRET MBNL1-His/biotin-(CUG)12 binding, 665/545 ratio; activity change, negative = inhibition: at 57.5 µM (top of the series).
Chain of UniProt Q9NR56 (Q9NR56 whole entry, looked up): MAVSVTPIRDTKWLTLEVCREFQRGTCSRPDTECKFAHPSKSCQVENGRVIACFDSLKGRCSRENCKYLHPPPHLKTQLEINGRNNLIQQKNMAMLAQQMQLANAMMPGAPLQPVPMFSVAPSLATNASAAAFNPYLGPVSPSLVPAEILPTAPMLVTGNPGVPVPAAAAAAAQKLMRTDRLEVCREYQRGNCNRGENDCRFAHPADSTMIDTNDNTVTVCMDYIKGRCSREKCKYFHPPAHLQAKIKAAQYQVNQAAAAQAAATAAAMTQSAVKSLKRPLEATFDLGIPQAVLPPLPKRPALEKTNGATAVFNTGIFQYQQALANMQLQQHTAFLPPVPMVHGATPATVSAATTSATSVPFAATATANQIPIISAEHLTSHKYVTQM
Method in brief: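 TR-FRET between His-tagged MBNL1 and biotin-(CUG)12 RNA, detected with Tb anti-His antibody (0.055 ng/ul) and streptavidin-XL665 (5 nM), 60 min at room temperature. Compounds titrated 92 nM to 58 uM; 665/545 nm ratio normalized to buffer and complex controls.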
In the case of `O=C(c1ccc([N+](=O)[O-])cc1)N1CCN(C(=O)c2cccnc2)CC1`, the Potency is reported as inconclusive: 14.1 µM [quencher, side channel, partial curve].
`O=C(Nc1c(Cl)ccc2nsnc12)c1ccc([N+](=O)[O-])o1` was tested, and the Potency was inconclusive: 6.31 µM [quencher, side channel, partial curve].
For `CCOCCc1nnc(NC(=O)c2cc(OC)c(OC)cc2[N+](=O)[O-])s1`, the Potency was inconclusive: 25.1 µM [quencher, side channel, single point].
`CN(C)c1ccc(/C=C(\NC(=O)c2ccccc2)C(=O)NCCN2CCOCC2)cc1` was tested, and the Potency was inconclusive: 14.1 µM [quencher, side channel, partial curve].
`Cc1nc2ccccn2c1C(=O)N/N=C/c1ccccc1[N+](=O)[O-]` was tested, and the Potency was inconclusive: 3.55 µM [quencher, side channel, full curve].
`CCN(CC)Cc1c(O)ccc2cc(-c3nc4ccccc4n3C)c(=O)oc12` was tested, and the Potency was inconclusive: 15.8 µM [quencher, side channel, partial curve].
With `CCC(C)N=CC1=C(O)C(C(=O)OC)C(C)(C)CC1=O` (stereo unspecified) the Potency was inconclusive: 39.8 µM [inhibitor, single point].
`COc1ccc(OC)c(NC(=O)/C=C/c2ccccc2[N+](=O)[O-])c1` was tested, and the Potency was inconclusive: 3.16 µM [quencher, side channel, full curve].
For `Cc1cc(C)nc(NS(=O)(=O)c2ccc(N/C=C\C(=O)c3cccs3)cc2)n1`, the Potency was inconclusive: 28.2 µM [quencher, side channel, partial curve].
In the case of `O=c1ccnc(NCCc2ccccc2)[nH]1`, the “activity change, negative = inhibition” value is reported as inactive: -16.8%.
With `O=C(O)C1C2C=CC3(CN(Cc4ccncc4)C(=O)C13)O2` (stereo unspecified) the Potency was inconclusive: 0.708 µM [quencher, side channel, full curve].
With `COc1ccc(-c2ccc(=O)n(CC(=O)NC3CCc4ccccc43)n2)cc1OC` (stereo unspecified) the Potency was inconclusive: 14.1 µM [quencher, side channel, partial curve].
With `CC1(CC(=O)N/N=C/c2cc([N+](=O)[O-])c(O)cc2O)OCCO1` the Potency was inconclusive: 39.8 µM [quencher, single point].
In the case of `COCc1cc(C)nc2sc(C(=O)N3CCN(c4ccccc4)CC3)c(N)c12`, the Potency is reported as inconclusive: 14.1 µM [quencher, side channel, partial curve].
`CCCCNCCOCCOc1ccc(C)cc1Br` was tested, and the Potency was inconclusive: 3.16 µM [quencher, side channel, partial curve].
`Cc1onc(-c2ccccc2)c1C(=O)OCCOc1ccc([N+](=O)[O-])cc1[N+](=O)[O-]` was tested, and the Potency was inconclusive: 11.2 µM [quencher, side channel, partial curve].
For `CC(=O)N1CCN(c2ccc(NC(=O)c3ccc([N+](=O)[O-])cc3)cc2)CC1`, the Potency was inconclusive: 10 µM [quencher, side channel, partial curve].
With `O=C(N/N=C/c1ccccc1O)C1(O)c2ccccc2-c2ccccc21` the “activity change, negative = inhibition” value was inactive: 6.46%.
With `COc1ccc(CSc2ncn[nH]2)cc1[N+](=O)[O-]` the Potency was inconclusive: 5.62 µM [quencher, side channel, full curve, poor fit].
`Cc1cccc(NC(=O)CSc2ncnc3nc[nH]c23)c1C` was tested, and the Potency was inconclusive: 0.708 µM [fluorescent, side channel, single point].
With `COc1cc(/C=N\NC(=O)c2ccccc2F)ccc1Oc1ccc([N+](=O)[O-])cn1` the Potency was inconclusive: 11.2 µM [quencher, side channel, partial curve].
`O=C(NCCNC(=O)c1ccccc1Br)c1ccccc1Br` was tested, and the “activity change, negative = inhibition” value was inactive: 6.02%.
In the case of `CCCCSc1nc(C)nc2c1c(=O)n(C)c(=O)n2C`, the Potency is reported as inconclusive: 25.1 µM [quencher, side channel, single point].
For `COc1cc(Cl)cc(/C=C/c2ccc3ccccc3n2)c1OC(C)=O`, the Potency was inconclusive: 3.16 µM [quencher, side channel, partial curve].
In the case of `CCCCSCc1[nH]c(=O)[nH]c1C(=O)CCCCC(=O)OCC`, the Potency is reported as inconclusive: 63.1 µM [inhibitor, single point].
With `COc1ccc(-n2c(N)c(C(=O)NCc3ccco3)c3nc4ccccc4nc32)cc1OC` the Potency was inconclusive: 3.16 µM [quencher, side channel, full curve].
For `CCOC(=O)c1sc2ccc(S(=O)(=O)N3CCCCC3)cc2c1N`, the Potency was inconclusive: 12.6 µM [quencher, single point].
`O=c1nc(NC2CCCC2)ccn1Cc1cccc(Br)c1` was tested, and the “activity change, negative = inhibition” value was inactive: -8.25%.
For `CC(/C=N/NC(=O)CCn1nnc2ccccc21)=C\c1ccccc1`, the Potency was inconclusive: 20 µM [quencher, side channel, single point].
`O=C(Cn1ccc(C(F)(F)F)n1)NNC(=O)c1cccnc1` was tested, and the “activity change, negative = inhibition” value was inactive: 2.43%.
In the case of `Cc1cc(NS(=O)(=O)c2ccc(NC(=O)c3cc4c(=O)n5ccccc5nc4s3)cc2)nc(C)n1`, the Potency is reported as inconclusive: 20 µM [quencher, side channel, partial curve].
`CN(C)c1ccc(C=NCC2(O)CCOC(C)(C)C2)cc1` (stereo unspecified) was tested, and the Potency was inconclusive: 31.6 µM [quencher, side channel, single point].
For `CCN(CCCNS(=O)(=O)c1cc(-c2cc(C)no2)ccc1C)Cc1ccccc1`, the Potency was inconclusive: 100 µM [inhibitor, single point].
In the case of `Cc1oc(-c2ccc(Cl)cc2)[n+]([O-])c1C`, the “activity change, negative = inhibition” value is reported as inactive: -3.39%.
`O=C(Cn1ncc2c3ccccc3n(Cc3ccccc3)c2c1=O)N1CCN(c2ncccn2)CC1` was tested, and the “activity change, negative = inhibition” value was inactive: -1.62%.
For `COc1cc(CCC(=O)Nc2ccc(Br)c(C(F)(F)F)c2)cc(OC)c1OC`, the Potency was inconclusive: 0.224 µM [quencher, side channel, full curve, poor fit].
In the case of `COc1ccc(-c2cn[nH]c2C)cc1`, the “activity change, negative = inhibition” value is reported as inactive: -15.5%.
In the case of `Cc1n[nH]c(C)c1N1C(=O)c2cccc3cc(Br)cc(c23)C1=O`, the Potency is reported as inconclusive: 12.6 µM [quencher, side channel, partial curve].
`Oc1ccc(/C=N/NC(=S)Nc2cccnc2)cc1` was tested, and the Potency was inconclusive: 35.5 µM [quencher, side channel, single point].
In the case of `Fc1ccc(N2CCN(C3=Nc4cccc5cccc3c45)CC2)cc1`, the Potency is reported as inconclusive: 28.2 µM [quencher, side channel, single point].
`Nc1nc2ccccc2n1C(=O)c1ccccc1` was tested, and the “activity change, negative = inhibition” value was inactive: -1.56%.
For `CC(C)(C)c1cc(=O)n(-c2ccccc2)[nH]1`, the Potency was inconclusive: 7.94 µM [inhibitor, single point].
`O=C(O)c1cccc(NC(=O)c2ccc3c(c2)C(=O)N(c2ccccc2)C3=O)c1` was tested, and the Potency was inconclusive: 2.82 µM [quencher, side channel, partial curve, poor fit].
In the case of `CCCCOc1ccc(Br)cc1CSC(=N)N`, the “activity change, negative = inhibition” value is reported as inactive: -7.48%.
In the case of `Cc1cc2c(cc1S(=O)(=O)N1CCCC1)n(C)c(=O)c(=O)n2C`, the “activity change, negative = inhibition” value is reported as inactive: -0.674%.
In the case of `O=C(O)c1ccc2c(=O)n3c(nc2c1)/C(=C/c1ccc(F)cc1)CC3`, the Potency is reported as inconclusive: 3.16 µM [quencher, side channel, partial curve].
For `CCOC(=O)c1nnc(-c2ccccc2)nc1Sc1ccccc1Cl`, the Potency was inconclusive: 14.1 µM [quencher, partial curve].
In the case of `Cc1ccccc1NC(=S)NNC(=O)c1ccncc1`, the “activity change, negative = inhibition” value is reported as inactive: -1.98%.
For `O=C(N/N=C/c1cccnc1)c1ccc2ccccc2c1O`, the Potency was inconclusive: 17.8 µM [quencher, side channel, partial curve, poor fit].
For `Cc1c(C(=O)N/N=C/c2cccnc2)nnn1-c1nonc1N`, the Potency was inconclusive: 3.98 µM [quencher, side channel, full curve].
`CCN(CC)CCN1C(=O)C(=O)/C(=C(/O)c2cccc(OC)c2)C1c1ccccn1` (stereo unspecified) was tested, and the Potency was inconclusive: 25.1 µM [quencher, side channel, partial curve].
`O=C(Cc1ccccc1)NCC(=O)OCc1cccc([N+](=O)[O-])c1` was tested, and the Potency was inconclusive: 39.8 µM [quencher, single point].
For `CCSc1nnc(-c2ccccc2N)c(=O)[nH]1`, the Potency was inconclusive: 22.4 µM [quencher, partial curve].
In the case of `O=C(C1CCCN(S(=O)(=O)c2cccc3nsnc23)C1)N1CC=C(c2ccccc2)CC1` (stereo unspecified), the Potency is reported as inconclusive: 15.8 µM [quencher, side channel, partial curve].
In the case of `Cc1ccc(C(=O)N/N=C\c2ccccc2[N+](=O)[O-])cn1`, the Potency is reported as inconclusive: 14.1 µM [quencher, side channel, partial curve].
With `CC(=O)N1c2ccc([N+](=O)[O-])cc2NC(=O)CC1C` (stereo unspecified) the Potency was inconclusive: 10 µM [quencher, side channel, partial curve].
In the case of `O=C(Oc1ccc2c(=O)c(Oc3ccc4ccccc4c3)coc2c1)c1cncc(Br)c1`, the Potency is reported as inconclusive: 39.8 µM [quencher, side channel, partial curve].
In the case of `CCN(CC)CCCNC(=O)c1cc2c(=O)[nH]c3ccc(C)cc3c2s1`, the Potency is reported as inconclusive: 28.2 µM [quencher, side channel, single point].
For `O=C(NN1C(=O)/C(=C\c2cccnc2)SC1=S)c1ccco1`, the Potency was inconclusive: 25.1 µM [quencher, side channel, single point].
For `Cc1cc(Nc2cccc([N+](=O)[O-])c2)c2ccccc2n1`, the Potency was inconclusive: 12.6 µM [quencher, side channel, partial curve].
With `Cc1ccc(-c2nn(-c3cccc(F)c3)cc2CN(Cc2nccn2C)C(C)C)o1` the “activity change, negative = inhibition” value was inactive: -10.5%.
On the % scale 0 is the no-effect control and ±100 the full control effect; potency means the concentration at half of the fitted maximal effect; tags describe the fitted curve by direction and shape or compound fluorescence and quenching.
